# Results taken from the supplement of paper PMC8728848.
# The other results are listed elsewhere or left out.
# B1: PX14343B-bfa-546-20-546 (Bacteroides fragilis) (protein)
# chain: CDLERYPLTDLSEETFWNSESNAELALTSLYRGSLTDGVEYNPSDWWSYHGMIMMEHLSDNAFDRRGENNPFFKISSGNLTADNAFIKRYWETSYKRIGYCNRFLVGIQNSSESEKKTRMIAEARFLRATQYFYLASYFKNVPLVENVLTGEEANNVTKTSQADILKWCVTEFTAAAADLPRFSAIPAGEAGRACKQAALAFLGRTCMLQKDWKSGAKAFHDIMELGDNAINANYQELFYPSTGTSNKENIFYIQYLENYLGTGLPQHALSAKDGGWSLVNPAADLYESYEFKDGTPFSYDDPRYDPSNLGKDRDPRLDYTIYYNGAIFMGTEYKMSPDYSAAKKEKLDYTSEASRTGFMMRKYFEESTPINDVQSANGLTPVIRYAEVLLGYLECLVEDNQTITQGILDETINAVRGRASVNMPPVTEVTPAKLREIVRHERRIELAMEGIRYWDIMRWGIAHEVLSQKIWGAPYPGSTQYATTTKEVDPTGNYRWYVGKRAFRNPTDYTWPIPQSEQNINPNLRD
# Experiments:
# Test in all cases: glycan array binding signal (z-score within array); higher = stronger binding
# Details in all cases: glycan notation: IUPAC condensed, linker removed
# [1] = target: Neu5Ac(a2-3)Gal(b1-3)GlcNAc(b1-2)Man(a1-3)[GlcNAc(b1-4)][Neu5Ac(a2-3)Gal(b1-3)GlcNAc(b1-2)Man(a1-6)]Man(b1-4)GlcNAc(b1-4)GlcNAc
# Procedure, shortened: (§1)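 The binding signal is a Z-score computed within each array and averaged over linkers. Arrays of the same protein sequence at different concentrations or buffers were also averaged together. Data originate from 3228 arrays in the Consortium for Functional Glycomics database, kept only where the protein sequence was available.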
# [2] = target: Neu5Ac(a2-3)Gal(b1-3)GlcNAc(b1-2)Man(a1-3)[Neu5Ac(a2-3)Gal(b1-3)GlcNAc(b1-2)Man(a1-6)]Man(b1-4)GlcNAc(b1-4)GlcNAc
# Procedure, shortened: as §1
# [3] = target: Neu5Ac(a2-3)Gal(b1-3)GlcNAc(b1-3)Gal(b1-3)GlcNAc
# Procedure, shortened: as §1
# [4] = target: Neu5Ac(a2-3)Gal(b1-3)GlcNAc(b1-3)Gal(b1-4)GlcNAc
# Procedure, shortened: as §1
# [5] = target: Neu5Ac(a2-3)Gal(b1-3)GlcNAc(b1-3)GalNAc
# Procedure, shortened: as §1
# [6] = target: Neu5Ac(a2-3)Gal(b1-3)GlcNAc(b1-4)Gal(b1-4)Glc
# Procedure, shortened: as §1
# [7] = target: Neu5Ac(a2-3)Gal(b1-3)GlcNAc(b1-6)GalNAc
# Procedure, shortened: as §1
# [8] = target: Neu5Ac(a2-3)Gal(b1-3)GlcNAc6S
# Procedure, shortened: as §1
# [9] = target: Neu5Ac(a2-3)Gal(b1-3)[Fuc(a1-4)]GlcNAc
# Procedure, shortened: as §1
# [10] = target: Neu5Ac(a2-3)Gal(b1-3)[Fuc(a1-4)]GlcNAc(b1-3)Gal(b1-3)[Fuc(a1-4)]GlcNAc
# Procedure, shortened: as §1
# [11] = target: Neu5Ac(a2-3)Gal(b1-3)[Fuc(a1-4)]GlcNAc(b1-3)Gal(b1-4)[Fuc(a1-3)]GlcNAc
# Procedure, shortened: as §1
# [12] = target: Neu5Ac(a2-3)Gal(b1-3)[GlcNAc(b1-6)]GalNAc
# Procedure, shortened: as §1
# [13] = target: Neu5Ac(a2-3)Gal(b1-3)[Neu5Ac(a2-6)]GalNAc
# Procedure, shortened: as §1
# [14] = target: Neu5Ac(a2-3)Gal(b1-3)[Neu5Ac(a2-6)]GlcNAc(b1-3)[Fuc(a1-3)[Gal(b1-4)]GlcNAc(b1-6)]Gal(b1-4)Glc
# Procedure, shortened: as §1
# [15] = target: Neu5Ac(a2-3)Gal(b1-3)]Neu5Ac(a2-3)Gal(b1-4)]GlcNAc
# Procedure, shortened: as §1
# Neu5Ac(a2-3)Gal(b1-4)Glc = target: Neu5Ac(a2-3)Gal(b1-4)Glc
# Procedure, shortened: as §1
# [16] = target: Neu5Ac(a2-3)Gal(b1-4)GlcNAc
# Procedure, shortened: as §1
# [17] = target: Neu5Ac(a2-3)Gal(b1-4)GlcNAc(b1-2)Man
# Procedure, shortened: as §1
# [18] = target: Neu5Ac(a2-3)Gal(b1-4)GlcNAc(b1-2)Man(a1-3)[GlcNAc(b1-4)][Neu5Ac(a2-3)Gal(b1-4)GlcNAc(b1-2)Man(a1-6)]Man(b1-4)GlcNAc(b1-4)GlcNAc
# Procedure, shortened: as §1
# [19] = target: Neu5Ac(a2-3)Gal(b1-4)GlcNAc(b1-2)Man(a1-3)[Neu5Ac(a2-3)Gal(b1-4)GlcNAc(b1-2)Man(a1-6)]Man(b1-4)GlcNAc(b1-4)GlcNAc
# Procedure, shortened: as §1
# [20] = target: Neu5Ac(a2-3)Gal(b1-4)GlcNAc(b1-2)Man(a1-3)[Neu5Ac(a2-3)Gal(b1-4)GlcNAc(b1-2)Man(a1-6)]Man(b1-4)GlcNAc(b1-4)[Fuc(a1-6)]GlcNAc
# Procedure, shortened: as §1
# [21] = target: Neu5Ac(a2-3)Gal(b1-4)GlcNAc(b1-2)Man(a1-3)[Neu5Ac(a2-6)Gal(b1-4)GlcNAc(b1-2)Man(a1-6)]Man(b1-4)GlcNAc(b1-4)GlcNAc
# Procedure, shortened: as §1
# [22] = target: Neu5Ac(a2-3)Gal(b1-4)GlcNAc(b1-2)[Neu5Ac(a2-3)Gal(b1-4)GlcNAc(b1-4)]Man(a1-3)[GlcNAc(b1-4)][Neu5Ac(a2-3)Gal(b1-4)GlcNAc(b1-2)[Neu5Ac(a2-3)Gal(b1-4)GlcNAc(b1-6)]Man(a1-6)]Man(b1-4)GlcNAc(b1-4)GlcNAc
# Procedure, shortened: as §1
# [23] = target: Neu5Ac(a2-3)Gal(b1-4)GlcNAc(b1-2)[Neu5Ac(a2-3)Gal(b1-4)GlcNAc(b1-4)]Man(a1-3)[GlcNAc(b1-4)][Neu5Ac(a2-3)Gal(b1-4)GlcNAc(b1-4)Man(a1-6)]Man(b1-4)GlcNAc(b1-4)GlcNAc
# Procedure, shortened: as §1
# [24] = target: Neu5Ac(a2-3)Gal(b1-4)GlcNAc(b1-2)[Neu5Ac(a2-3)Gal(b1-4)GlcNAc(b1-6)]Man(a1-6)[Neu5Ac(a2-3)Gal(b1-4)GlcNAc(b1-2)Man(a1-3)]Man(b1-4)GlcNAc(b1-4)GlcNAc
# Procedure, shortened: as §1
# [25] = target: Neu5Ac(a2-3)Gal(b1-4)GlcNAc(b1-2)[Neu5Ac(a2-3)Gal(b1-4)GlcNAc(b1-6)]Man(a1-6)[Neu5Ac(a2-3)Gal(b1-4)GlcNAc(b1-2)Man(a1-3)][GlcNAc(b1-4)]Man(b1-4)GlcNAc(b1-4)GlcNAc
# Procedure, shortened: as §1
# [26] = target: Neu5Ac(a2-3)Gal(b1-4)GlcNAc(b1-3)Gal
# Procedure, shortened: as §1
# [27] = target: Neu5Ac(a2-3)Gal(b1-4)GlcNAc(b1-3)Gal(b1-3)GlcNAc
# Procedure, shortened: as §1
# [28] = target: Neu5Ac(a2-3)Gal(b1-4)GlcNAc(b1-3)Gal(b1-4)GlcNAc
# Procedure, shortened: as §1
# [29] = target: Neu5Ac(a2-3)Gal(b1-4)GlcNAc(b1-3)Gal(b1-4)GlcNAc(b1-2)Man(a1-3)[Neu5Ac(a2-3)Gal(b1-4)GlcNAc(b1-3)Gal(b1-4)GlcNAc(b1-2)Man(a1-6)]Man(b1-4)GlcNAc(b1-4)GlcNAc
# Procedure, shortened: as §1
# [30] = target: Neu5Ac(a2-3)Gal(b1-4)GlcNAc(b1-3)Gal(b1-4)GlcNAc(b1-3)Gal(b1-4)GlcNAc
# Procedure, shortened: as §1
# [31] = target: Neu5Ac(a2-3)Gal(b1-4)GlcNAc(b1-3)Gal(b1-4)GlcNAc(b1-3)Gal(b1-4)GlcNAc(b1-2)Man(a1-3)[Neu5Ac(a2-3)Gal(b1-4)GlcNAc(b1-3)Gal(b1-4)GlcNAc(b1-3)Gal(b1-4)GlcNAc(b1-2)Man(a1-6)]GalNAc
# Procedure, shortened: as §1
# [32] = target: Neu5Ac(a2-3)Gal(b1-4)GlcNAc(b1-3)Gal(b1-4)GlcNAc(b1-3)GalNAc
# Procedure, shortened: as §1
# [33] = target: Neu5Ac(a2-3)Gal(b1-4)GlcNAc(b1-3)Gal(b1-4)GlcNAc(b1-3)[Neu5Ac(a2-3)Gal(b1-4)GlcNAc(b1-3)Gal(b1-4)GlcNAc(b1-6)]GalNAc
# Procedure, shortened: as §1
# [34] = target: Neu5Ac(a2-3)Gal(b1-4)GlcNAc(b1-3)Gal(b1-4)GlcNAc(b1-6)[Gal(b1-3)]GalNAc
# Procedure, shortened: as §1
# [35] = target: Neu5Ac(a2-3)Gal(b1-4)GlcNAc(b1-3)Gal(b1-4)[Fuc(a1-3)]GlcNAc
# Procedure, shortened: as §1
# [36] = target: Neu5Ac(a2-3)Gal(b1-4)GlcNAc(b1-3)GalNAc
# Procedure, shortened: as §1
# [37] = target: Neu5Ac(a2-3)Gal(b1-4)GlcNAc(b1-3)[Neu5Ac(a2-3)Gal(b1-4)GlcNAc(b1-6)]GalNAc
# Procedure, shortened: as §1
binder,measurement,setting,value
B1,glycan array binding signal (z-score),[1],-0.126
same,glycan array binding signal (z-score),[2],-0.091
same,glycan array binding signal (z-score),[3],-0.129
same,glycan array binding signal (z-score),[4],-0.131
same,glycan array binding signal (z-score),[5],-0.114
same,glycan array binding signal (z-score),[6],-0.123
same,glycan array binding signal (z-score),[7],-0.123
same,glycan array binding signal (z-score),[8],-0.119
same,glycan array binding signal (z-score),[9],-0.107
same,glycan array binding signal (z-score),[10],-0.107
same,glycan array binding signal (z-score),[11],-0.12
same,glycan array binding signal (z-score),[12],-0.111
same,glycan array binding signal (z-score),[13],-0.125
same,glycan array binding signal (z-score),[14],-0.121
same,glycan array binding signal (z-score),[15],-0.115
same,glycan array binding signal (z-score),Neu5Ac(a2-3)Gal(b1-4)Glc,-0.114
same,glycan array binding signal (z-score),[16],-0.121
same,glycan array binding signal (z-score),[17],-0.09
same,glycan array binding signal (z-score),[18],-0.126
same,glycan array binding signal (z-score),[19],-0.132
same,glycan array binding signal (z-score),[20],-0.125
same,glycan array binding signal (z-score),[21],-0.112
same,glycan array binding signal (z-score),[22],-0.129
same,glycan array binding signal (z-score),[23],-0.105
same,glycan array binding signal (z-score),[24],-0.116
same,glycan array binding signal (z-score),[25],-0.118
same,glycan array binding signal (z-score),[26],-0.133
same,glycan array binding signal (z-score),[27],-0.13
same,glycan array binding signal (z-score),[28],-0.126
same,glycan array binding signal (z-score),[29],-0.118
same,glycan array binding signal (z-score),[30],-0.128
same,glycan array binding signal (z-score),[31],-0.1
same,glycan array binding signal (z-score),[32],-0.127
same,glycan array binding signal (z-score),[33],-0.116
same,glycan array binding signal (z-score),[34],-0.118
same,glycan array binding signal (z-score),[35],-0.127
same,glycan array binding signal (z-score),[36],-0.12
same,glycan array binding signal (z-score),[37],-0.119
